Assay results reported in the supplement of paper PMC4604168 (melanoma cell lines).
Some of the results follow. Single values are uncertain, as repeats are few or missing.

Legend:
Assay in all cases: cell count relative to DMSO control; melanoma cells; higher = more viable cells
Conditions in all cases: library dose: low library concentration; 72 h
WM115 = system: WM115
WM1716 = system: WM1716
WM1745 = system: WM1745
WM3526 = system: WM3526
WM3619 = system: WM3619
WM451Lu = system: WM451Lu
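Further: cell number obtained by counting DAPI-stained nuclei in high-throughput microscope images with image analysis software, screen run in 1,536-well plates.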

Compound | cell count (WM115) [%] | cell count (WM1716) [%] | cell count (WM1745) [%] | cell count (WM3526) [%] | cell count (WM3619) [%] | cell count (WM451Lu) [%]
Cn1c(Nc2ccc(C(F)(F)F)cc2)nc2cc(Oc3ccnc(-c4ncc(C(F)(F)F)[nH]4)c3)ccc21 + OCCn1cc(-c2cnc3nnn(Cc4ccc5ncccc5c4)c3n2)cn1 [PF04217903] (first compound 0.08 µM, partner dose 1 µM) | 66.9 | 90.4 | 77.9 | 44.9 | 69.1 | 113
OCc1c[nH]c2ccccc12 [Indole-3-carbinol] + COC(=O)c1sccc1S(=O)(=O)Nc1ccc(Nc2ccccc2)cc1OC [GSK0660] (first compound 0.8 µM, partner dose 1 µM) | 107 | 122 | 110 | 100 | 103 | 77.2
Clc1ccc(Nc2nnc(Cc3ccncc3)c3ccccc23)cc1 [vatalanib] + Oc1nc(-c2ccc(C(F)(F)F)cc2)nc2c1CSCC2 [XAV939] (first compound 2 µM, partner dose 2 µM) | 80.7 | 61.4 | 76.9 | 116 | 111 | 103
Nc1cccc2c1CN(C1CCC(=O)NC1=O)C2=O (stereo not drawn) [lenalidomide] + Cn1cncc1[C@@](N)(c1ccc(Cl)cc1)c1ccc2c(c1)c(-c1cccc(Cl)c1)cc(=O)n2C [tipifarnib] (first compound 1 µM, partner dose 0.01 µM) | 85.6 | 78.8 | 83.7 | 76 | 86.6 | 95.9
Cn1c(Nc2ccc(C(F)(F)F)cc2)nc2cc(Oc3ccnc(-c4ncc(C(F)(F)F)[nH]4)c3)ccc21 + Cn1cncc1[C@@](N)(c1ccc(Cl)cc1)c1ccc2c(c1)c(-c1cccc(Cl)c1)cc(=O)n2C [tipifarnib] (first compound 0.08 µM, partner dose 0.01 µM) | 41.4 | 76.5 | 83.2 | 46 | 54.9 | 84.5
Cn1c(Nc2ccc(C(F)(F)F)cc2)nc2cc(Oc3ccnc(-c4ncc(C(F)(F)F)[nH]4)c3)ccc21 + O=C(Nc1ccccc1)c1cc([N+](=O)[O-])ccc1Cl [GW9662] (first compound 0.08 µM, partner dose 2 µM) | 63.3 | 82.5 | 75.6 | 51.6 | 76.8 | 128
O=C(CCCCCCC(=O)Nc1ccccc1)NO [vorinostat] + COc1cc2ncnc(Nc3ccc(Oc4ccccc4)cc3)c2cc1OC [SrcI1] (first compound 0.08 µM, partner dose 2 µM) | 101 | 113 | 100 | 97.2 | 108 | 108
C#Cc1cccc(Nc2ncnc3cc(OCCOC)c(OCCOC)cc23)c1 [erlotinib] + COCC[n+]1c2c(n(Cc3cnccn3)c1C)C(=O)c1ccccc1C2=O [YM155] (first compound 0.8 µM, partner dose 0.0004 µM) | 89.6 | 80 | 77.5 | 81.8 | 83.2 | 73.7
O=C(CCCCCCC(=O)Nc1ccccc1)NO [vorinostat] + N#Cc1c(O)c2c(-c3ccc(-c4ccccc4O)cc3)csc2[nH]c1=O [A769662] (first compound 0.08 µM, partner dose 2 µM) | 99.4 | 127 | 98 | 100 | 109 | 105
Clc1ccc(Nc2nnc(Cc3ccncc3)c3ccccc23)cc1 [vatalanib] + COc1cc2c(Oc3ccc4[nH]c(C)cc4c3F)ncnc2cc1OCCCN1CCCC1 [cediranib] (first compound 2 µM, partner dose 0.4 µM) | 109 | 93.7 | 78.8 | 98.6 | 77.7 | 78.1
COCC[n+]1c2c(n(Cc3cnccn3)c1C)C(=O)c1ccccc1C2=O + CC(C)CCN1c2nc(Nc3cc(F)c(O)c(F)c3)ncc2N(C)C(=O)C1C [BID1870] (first compound 0.0004 µM, partner dose 0.2 µM) | 107 | 91.7 | 81 | 90.1 | 105 | 86.9
O=C(CCCCCCC(=O)Nc1ccccc1)NO [vorinostat] + Cc1cc(N2CCOCC2)cc2[nH]c(-c3c(NC[C@@H](O)c4cccc(Cl)c4)cc[nH]c3=O)nc12 [BMS536924] (first compound 0.08 µM, partner dose 0.2 µM) | 108 | 103 | 73.7 | 94 | 76.9 | 95.1
OCc1c[nH]c2ccccc12 [Indole-3-carbinol] + CCc1ccc(CCOc2ccc(CC3SC(=O)NC3=O)cc2)nc1 [pioglitazone] (first compound 0.8 µM, partner dose 2 µM) | 96.8 | 88.6 | 96.2 | 108 | 102 | 83.9
Cn1c(Nc2ccc(C(F)(F)F)cc2)nc2cc(Oc3ccnc(-c4ncc(C(F)(F)F)[nH]4)c3)ccc21 + c1cc(-c2cnn3cc(-c4ccc(OCCN5CCCCC5)cc4)cnc23)ccn1 [Dorsomorphin] (first compound 0.08 µM, partner dose 0.4 µM) | 65.9 | 79.6 | 47 | 65.3 | 76.2 | 68.6
COCC[n+]1c2c(n(Cc3cnccn3)c1C)C(=O)c1ccccc1C2=O + O=S(=O)(c1ccccc1)N(CC(F)(F)F)c1ccc(C(O)(C(F)(F)F)C(F)(F)F)cc1 [T0901317] (first compound 0.0004 µM, partner dose 1.4 µM) | 100 | 89 | 73.6 | 101 | 113 | 86.3
C#Cc1cccc(Nc2ncnc3cc(OCCOC)c(OCCOC)cc23)c1 [erlotinib] + COc1cc(N2CCC(N3CCN(C)CC3)CC2)ccc1Nc1ncc(Cl)c(Nc2ccccc2S(=O)(=O)C(C)C)n1 [NVP-TAE684] (first compound 0.8 µM, partner dose 0.08 µM) | 92.2 | 98.9 | 70.8 | 73.8 | 107 | 94.7
O=C(CCCCCCC(=O)Nc1ccccc1)NO [vorinostat] + COc1ccc(-c2ccc3c(N4CCOCC4)nc(N4C[C@@H](C)O[C@@H](C)C4)nc3n2)cc1CO [KU0063794] (first compound 0.08 µM, partner dose 0.02 µM) | 93.6 | 111 | 89.9 | 129 | 100 | 105
O=C(CCCCCCC(=O)Nc1ccccc1)NO [vorinostat] + Cc1ccc(NC(=O)c2cccc(N(C)C)c2)cc1NC(=O)c1ccc(O)cc1 [ZM336372] (first compound 0.08 µM, partner dose 2 µM) | 93.5 | 123 | 91.4 | 80 | 91.6 | 87.2
C#Cc1cccc(Nc2ncnc3cc(OCCOC)c(OCCOC)cc23)c1 [erlotinib] + CCN(CC)CCCCNc1ncc2cc(-c3cc(OC)cc(OC)c3)c(NC(=O)NC(C)(C)C)nc2n1 [PD173074] (first compound 0.8 µM, partner dose 0.1 µM) | 96.9 | 109 | 72.3 | 94.4 | 114 | 98.1
Cn1c(Nc2ccc(C(F)(F)F)cc2)nc2cc(Oc3ccnc(-c4ncc(C(F)(F)F)[nH]4)c3)ccc21 + Cc1cc([N+](=O)[O-])ccc1NS(=O)(=O)c1cc(Cl)ccc1Cl [FH535] (first compound 0.08 µM, partner dose 1 µM) | 29 | 74.4 | 77.3 | 42 | 79.1 | 80.4
OCc1c[nH]c2ccccc12 [Indole-3-carbinol] + C=CCn1c(=O)c2cnc(Nc3ccc(N4CCN(C)CC4)cc3)nc2n1-c1cccc(C(C)(C)O)n1 [MK1775] (first compound 0.8 µM, partner dose 0.02 µM) | 83.6 | 88.9 | 68.6 | 67.7 | 54.4 | 111
C#Cc1cccc(Nc2ncnc3cc(OCCOC)c(OCCOC)cc23)c1 [erlotinib] + O=C(O)c1ccc(-c2c[nH]c3ncc(-c4ccccc4)cc23)cc1C1CCCC1 [GSK650394] (first compound 0.8 µM, partner dose 0.16 µM) | 89.6 | 94.8 | 75.5 | 101 | 93.7 | 86.9
C#Cc1cccc(Nc2ncnc3cc(OCCOC)c(OCCOC)cc23)c1 [erlotinib] + O=C(Nc1ccccc1)c1cc([N+](=O)[O-])ccc1Cl [GW9662] (first compound 0.8 µM, partner dose 2 µM) | 99.4 | 88.3 | 71 | 62.4 | 105 | 111
O=C(CCCCCCC(=O)Nc1ccccc1)NO [vorinostat] + O=C(O)c1ccc(-c2c[nH]c3ncc(-c4ccccc4)cc23)cc1C1CCCC1 [GSK650394] (first compound 0.08 µM, partner dose 0.16 µM) | 99.6 | 111 | 112 | 83.2 | 109 | 90.1
O=C(CCCCCCC(=O)Nc1ccccc1)NO [vorinostat] + O=c1cc(-c2cccc3c2Sc2ccccc2S3)oc(N2CCOCC2)c1 [KU55933] (first compound 0.08 µM, partner dose 1 µM) | 106 | 125 | 112 | 85.8 | 104 | 85.4
Nc1cccc2c1CN(C1CCC(=O)NC1=O)C2=O (stereo not drawn) [lenalidomide] + O=C(O)C(=O)Nc1sc2c(c1C(=O)O)CCNC2 [TCS401] (first compound 1 µM, partner dose 1.66667 µM) | 97.7 | 99.8 | 93 | 106 | 99.6 | 110
Nc1cccc2c1CN(C1CCC(=O)NC1=O)C2=O (stereo not drawn) [lenalidomide] + CCN(CC)CCCCNc1ncc2cc(-c3cc(OC)cc(OC)c3)c(NC(=O)NC(C)(C)C)nc2n1 [PD173074] (first compound 1 µM, partner dose 0.1 µM) | 106 | 88.8 | 92.2 | 94 | 116 | 97.8
OCc1c[nH]c2ccccc12 [Indole-3-carbinol] + C[C@@H]1CCN(C(=O)CC#N)C[C@@H]1N(C)c1ncnc2[nH]ccc12 [CP690550] (first compound 0.8 µM, partner dose 1 µM) | 98.4 | 90.7 | 91.7 | 104 | 88.7 | 89.5
